Laboratory results reported in the supplement of paper PMC12297408.
Structures can show the parent of a compound that is named as a salt. Among all 1,300 compounds or so, about 40 (3%) showed activity. Some of the results follow.

Test system: Plasmodium falciparum NF54/iGP1_RE9H ulg8 stage V gametocytes
Assay: gametocyte viability (luciferase signal relative to DMSO control) (% of DMSO control); higher = less gametocytocidal activity, active = 50 or less
Conditions: exposure time: 72 h
Procedure, shortened: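 NF54/iGP1_RE9Hulg8 stage V gametocytes (day 12; ~2.5% gametocytemia, 3% hematocrit) were incubated with compounds at 10 µM or 1 µM final, in one well each, for 72 h at 37 °C in medium with 0.5% Albumax II. Luminescence after D-luciferin addition was read on an IVIS Lumina II. Viability refers to the mean of plate DMSO vehicle wells.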

Structure (SMILES) | gametocyte viability (concentration: 1 µM) | gametocyte viability (concentration: 10 µM)
CC(C)C(=O)Nc1ccc([N+](=O)[O-])c(C(F)(F)F)c1 [Flutamide] | inactive: 83.9 | inactive: 81.9
Cn1cnc([N+](=O)[O-])c1Sc1ncnc2[nH]cnc12 [Azathioprine] | inactive: 89.3 | inactive: 90.5
CN(C)[C@@H]1C(=O)C(C(N)=O)=C(O)[C@@]2(O)C(=O)C3=C(O)c4c(O)ccc(Cl)c4[C@@H](O)[C@H]3C[C@@H]12 [Demeclocycline hydrochloride] | inactive: 95.2 | inactive: 90.1
OCCN1C[C@H](O)[C@@H](O)[C@H](O)[C@H]1CO [Miglitol] | inactive: 78.3 | inactive: 81.3
CC(=O)SCC(Cc1ccccc1)C(=O)NCC(=O)OCc1ccccc1 (stereo unspecified) [Racecadotril] | inactive: 95.8 | inactive: 93.3
C[C@H](CCC(=O)O)[C@H]1CC[C@H]2[C@@H]3CC[C@@H]4C[C@H](O)CC[C@]4(C)[C@H]3CC[C@]12C [Lithocholic acid] | inactive: 96.2 | inactive: 98.8
COC(=O)C1=C(C)NC(C)=C(C(=O)OC(C)C)C1c1cccc2nonc12 (stereo unspecified) [Isradipine] | inactive: 84.4 | inactive: 86.2
COCC(=O)Nc1c(I)c(C(=O)NCC(O)CO)c(I)c(C(=O)N(C)CC(O)CO)c1I (stereo unspecified) [Iopromide] | inactive: 85.6 | inactive: 85.9
O=C(O)CCCC[C@@H]1SC[C@@H]2NC(=O)N[C@@H]21 [Biotin] | inactive: 77.5 | inactive: 86.4
CC1COc2c(N3CCN(C)CC3)c(F)cc3c(=O)c(C(=O)O)cn1c23 (stereo unspecified) [Ofloxacin] | inactive: 85.5 | inactive: 85.7
CCN1CC(CCN2CCOCC2)C(c2ccccc2)(c2ccccc2)C1=O (stereo unspecified) [Doxapram hydrochloride] | inactive: 79.8 | inactive: 82
OCc1cc(C(O)CNCCCCCCOCCCCc2ccccc2)ccc1O (stereo unspecified) [Salmeterol] | inactive: 93.8 | inactive: 79.7
CC(=O)OCC(=O)[C@@]12N=C(C)O[C@@H]1C[C@H]1[C@@H]3CCC4=CC(=O)C=C[C@]4(C)[C@H]3[C@@H](O)C[C@@]12C [Deflazacort] | inactive: 95.7 | inactive: 104
O=C(O)Cc1sc(-c2ccccc2)nc1-c1ccc(Cl)cc1 [Fentiazac] | inactive: 93.4 | inactive: 90.3
CC(=O)Nc1ccc(CC(=O)O)cc1 [Actarit] | inactive: 91.6 | inactive: 94.8
C=C1c2c(Cl)ccc(O)c2C(O)=C2C(=O)[C@]3(O)C(O)=C(C(N)=O)C(=O)[C@@H](N(C)C)[C@@H]3[C@@H](O)[C@H]12.O=C(O)c1cc(S(=O)(=O)O)ccc1O [Meclocycline sulfosalicylate] | inactive: 80.9 | inactive: 83.5
CNCCC(Oc1ccc(C(F)(F)F)cc1)c1ccccc1 (stereo unspecified) [Fluoxetine hydrochloride] | inactive: 83 | inactive: 87
Cc1nc2n(c(=O)c1CCN1CCC(c3noc4cc(F)ccc34)CC1)CCCC2 [Risperidone] | inactive: 97 | inactive: 96.5
CCn1cc(C(=O)O)c(=O)c2cnc(N3CCCC3)nc21 [Piromidic acid] | inactive: 86.5 | inactive: 85.3
O=S(=O)(O)CCS [Mesna] | inactive: 85.6 | inactive: 85.9

Structure (SMILES) | gametocyte viability (concentration: 1 µM) | gametocyte viability (concentration: 10 µM)
CC(C)(C)NC[C@H](O)c1ccc(O)c(CO)c1 [Levalbuterol hydrochloride] | inactive: 80.9 | inactive: 81.4
O=C(O)c1cc(-c2ccc(F)cc2F)ccc1O [Diflunisal] | inactive: 82 | inactive: 81.1
CCCCNC(=O)NS(=O)(=O)c1ccc(C)cc1 [Tolbutamide] | inactive: 84.9 | inactive: 88.4
CC(=O)[C@H]1CC[C@H]2[C@@H]3C[C@H](C)C4=CC(=O)CC[C@]4(C)[C@H]3[C@@H](O)C[C@]12C [Medrysone] | inactive: 80.1 | inactive: 75.8
CCOC(=O)OC(C)OC1=C(C(=O)Nc2ccccn2)N(C)S(=O)(=O)c2ccccc21 (stereo unspecified) [Ampiroxicam] | inactive: 81.1 | inactive: 83.1
CC1(C)NC(=O)N(c2ccc([N+](=O)[O-])c(C(F)(F)F)c2)C1=O [Nilutamide] | inactive: 95.8 | inactive: 92.3
COC(=O)[C@@H]1[C@H]2C[C@H]3c4[nH]c5ccccc5c4CCN3C[C@@H]2CC[C@@H]1O [Yohimbine hydrochloride] | inactive: 97.2 | inactive: 94.4
CCCCC(CC)CNC(=N)NC(=N)NCCCCCCNC(=N)NC(=N)NCC(CC)CCCC (stereo unspecified) [Alexidine dihydrochloride] | active: 36.2 | active: 0.515
COc1ccc2cc([C@@H](C)C(=O)O)ccc2c1 [(R) -Naproxen sodium salt] | inactive: 87.1 | inactive: 81.3
Nc1nc(=O)c2c([nH]1)NC[C@@H](CNc1ccc(C(=O)N[C@@H](CCC(=O)O)C(=O)O)cc1)N2C=O [Folinic acid calcium salt] | inactive: 94.7 | inactive: 91.7
CCCCOc1cc(C(=O)NCCN(CC)CC)c2ccccc2n1 [Dibucaine] | inactive: 83.9 | inactive: 80.8
O=C1CCc2cc(OCCCCc3nnnn3C3CCCCC3)ccc2N1 [Cilostazol] | inactive: 90.8 | inactive: 95.7
CCS(=O)(=O)CCn1c([N+](=O)[O-])cnc1C [Tinidazole] | inactive: 97.9 | inactive: 95.4
CCC1=C(C)CN(C(=O)NCCc2ccc(S(=O)(=O)NC(=O)N[C@H]3CC[C@H](C)CC3)cc2)C1=O [Glimepiride] | inactive: 97.7 | inactive: 101
CC(=O)N(CC(C)C(=O)O)c1c(I)cc(I)c(N)c1I (stereo unspecified) [Iocetamic acid] | inactive: 81.2 | inactive: 85.1
COc1cc(C(=O)NC2CCCNC2)cc(OC)c1OC (stereo unspecified) [Troxipide] | inactive: 96.8 | inactive: 94.3
C[C@]12CC[C@@H]3c4ccc(O)cc4CC[C@H]3[C@@H]1CCC2=O [Estrone] | inactive: 99.2 | inactive: 96.4
CCOC(=O)C1=C[C@]2(CC)CCCN3CCc4c(n1c1ccccc41)[C@@H]32 [Vinpocetine] | inactive: 86.2 | inactive: 87.6
Cc1cccc(CN2CCN(C(c3ccccc3)c3ccc(Cl)cc3)CC2)c1 (stereo unspecified) [Meclozine dihydrochloride] | inactive: 86.3 | inactive: 81.3
O=C(O)CCC(=O)Nc1ccc(S(=O)(=O)Nc2nccs2)cc1 [Succinylsulfathiazole] | inactive: 95.6 | inactive: 96.7

Structure (SMILES) | gametocyte viability (concentration: 1 µM) | gametocyte viability (concentration: 10 µM)
COc1cnc(NS(=O)(=O)c2ccc(N)cc2)nc1 [Sulfameter] | inactive: 90.3 | inactive: 94.4
CCCCC(C)(O)C/C=C/[C@H]1[C@H](O)CC(=O)[C@@H]1CCCCCCC(=O)OC (mixture of isomers) [Misoprostol] | inactive: 82.4 | inactive: 81.9
CNCCC(Oc1ccccc1OC)c1ccccc1 (stereo unspecified) [Nisoxetine hydrochloride] | inactive: 89.1 | inactive: 95.5
COc1ccccc1O [Guaiacol] | inactive: 80.8 | inactive: 86.9
CCCCCCCN(CC)CCCC(O)c1ccc(NS(C)(=O)=O)cc1 (stereo unspecified) [Ibutilide fumarate] | inactive: 93 | inactive: 92.8
COc1ccc(-c2cc(=O)c3c(O)cc(O[C@@H]4O[C@H](CO[C@@H]5O[C@@H](C)[C@H](O)[C@@H](O)[C@H]5O)[C@@H](O)[C@H](O)[C@H]4O)cc3o2)cc1O [Diosmin] | inactive: 88.9 | inactive: 86.4
CC1CS(=O)(=O)CCN1/N=C/c1ccc([N+](=O)[O-])o1 (stereo unspecified) [Nifurtimox] | inactive: 81.3 | inactive: 63.1
CN1CC2c3ccccc3Oc3ccc(Cl)cc3C2C1 (stereo unspecified) [Asenapine maleate] | inactive: 94.7 | inactive: 101
c1ccc2[nH]c(-c3cscn3)nc2c1 [Tiabendazole] | inactive: 95.2 | inactive: 92.9
CO/N=C(\C(=O)N[C@@H]1C(=O)N2C(C(=O)O)=C(C[N+]3(C)CCCC3)CS[C@H]12)c1csc(N)n1 [Cefepime hydrochloride] | inactive: 78.9 | inactive: 82.2
CCOC(=O)[C@H](CCc1ccccc1)N[C@@H](C)C(=O)N1CCC[C@H]1C(=O)O [Enalapril maleate] | inactive: 81.9 | inactive: 86.7
CN(C)CCCO[C@@H]1[C@H]2OC(C)(C)O[C@H]2O[C@@H]1[C@H](O)CO [Amiprilose hydrochloride] | inactive: 97.3 | inactive: 92.5
C[C@]12CC[C@@H]3c4ccc(O)cc4CC[C@H]3[C@@H]1C[C@@H](O)[C@@H]2O [Estriol] | inactive: 94.6 | inactive: 92.2
CC[N+](CC)(CC)CCC(O)(c1ccccc1)C1CCCCC1 (stereo unspecified) [Tridihexethyl chloride] | inactive: 95.7 | inactive: 100
CCc1cccc2c3c([nH]c12)C(CC)(CC(=O)O)OCC3 (stereo unspecified) [Etodolac] | inactive: 94.3 | inactive: 95.8
Cc1noc(NS(=O)(=O)c2ccc(N)cc2)c1C [Sulfisoxazole] | inactive: 92.3 | inactive: 94.4
CC(Oc1c(Cl)cccc1Cl)C1=NCCN1 (stereo unspecified) [Lofexidine] | inactive: 92.5 | inactive: 90.5
CC1=C(CC(=O)O)c2cc(F)ccc2/C1=C\c1ccc([S+](C)[O-])cc1 (stereo unspecified) [Sulindac] | inactive: 88.6 | inactive: 82.7
